# From article PMC12040169 (PLOS Biology, 2025)
# Some of the results follow.
# Test system: T1, C. trachomatis L2/434/Bu expressing GFP (CTL2-GFP)
# T1 construct: L2/434/Bu GFP intracellular growth in HeLa cells
# Parameters: species or system HeLa; C. trachomatis total inclusion area by high-content imaging, normalised to DMSO
# Conditions: total inclusion area; 28.5 h, 10 µM; inhibitor
# In short: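 Host cell viability was gauged from Hoechst-stained nuclei counts, while chlamydial growth was taken from total inclusion area and inclusion number per well. Cells were fixed and imaged by high-content microscopy once bulk GFP and resorufin fluorescence had been measured.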
row,Compound,% of control remaining
1,O=C(O)CCCn1cc(NC(=O)c2ccc(Br)o2)cn1 [CBK270042],96.4644
2,NCC1OCCc2ccccc21 (stereo not shown) [CBK027717],100.575
3,COc1ccc(N2C(=O)CSC23C(=O)Nc2ccc(Br)cc23)cc1 (stereo not shown) [CBK093454],88.3369
4,c1ccc(CCN2CCC(Oc3cncc(OCCN4CCOCC4)n3)C2)cc1 (stereo not shown) [CBK084497],112.094
5,COCCn1cnnc1CN(C)C(=O)NCc1cc2ccccc2s1 [CBK306911],60.7368
6,COC(C)(C(=O)Nc1ccc(Cl)nc1)c1cccc2ccccc12 (stereo not shown) [CBK091350],92.5421
7,CCCCC(Sc1nc(N)cc(Cl)n1)c1cc(C)ccn1 (stereo not shown) [CBK016827],61.0217
8,Cc1c(Cl)cccc1S(=O)(=O)Nc1c(C(=O)O)[nH]c2ccccc12 [CBK049889],88.452
9,N#Cc1ccc(NC(=O)NCCc2cccs2)cc1 [CBK043736],90.0918
10,Nc1nc2nn([C@H]3C[C@@H](O)[C@@H](CO)O3)cc2c(=O)[nH]1 [CBK201218],73.4487
11,O=C(c1cc2c(F)cccc2[nH]1)N(CCO)CCc1ccncc1 [CBK281644],99.7046
12,Cc1c(C(=O)N2CCC(CN)C2)nnn1-c1ccc2ncccc2c1 (stereo not shown) [CBK304734],81.8079
13,c1ccc(COc2ccc(N3CCNCC3)cc2)cc1 [CBK012776C],96.7843
14,Clc1cccc(-c2cncc(N3CCN(Cc4ccccn4)CC3)n2)c1 [CBK037282],117.688
15,COc1ccc(NC(=O)c2cc(-c3cccnc3)nc3c(C)c(C)ccc23)c(OC)c1 [CBK267746],118.301
16,O=C(NC1CC1)c1cc(C2CCCN(Cc3cccc(F)c3)C2)no1 (stereo not shown) [CBK284588],53.1293
17,CC(=O)N1CCC[C@H]2NC(=O)CNC(=O)C3(C/C=C/C[C@H]21)CCN(Cc1ccccc1O)CC3 [CBK292054],87.0316
18,O=C(c1ccc(F)cc1)[C@H]1CCCN(C(=O)C2CC2)C1 [CBK284326],68.0119
19,CN1C(=O)C(CCNc2ccccc2)S/C1=N/C1CC2C=CC1C2 (stereo not shown) [CBK073812],62.1966
20,CC(CCCc1ccccc1)NC(=O)c1cc2c([nH]c1=O)CCC2 (stereo not shown) [CBK281528],110.263
21,CCn1cc(CCC(=O)NC2CCCOC2)c2ccccc21 (stereo not shown) [CBK283256],113.682
22,Cc1ccc(CNC(=O)Cc2csc(N3CCCC3=O)n2)n1C [CBK305642],97.1723
23,Nc1nonc1NC(=O)N/N=C/c1ccc(C(F)(F)F)cc1 [CBK261813],80.1021
24,CCOC(=O)c1ccccc1NS(=O)(=O)c1ccc(C)c([N+](=O)[O-])c1 [CBK045451],100.225
25,COc1cc(CNC23CC4CC(CC(C4)C2)C3)c(Cl)cc1OCC(=O)O [CBK269567],93.063
26,CN1CCC(CN(C)Cc2ccc3cccc(Cl)c3n2)C1 (stereo not shown) [CBK282615],101.357

row,Compound,% of control remaining
1,CC(=O)Nc1cc(S(N)(=O)=O)c(F)cc1C [CBK034356],13.6434
2,CCOc1ccc(/N=C2/SC(C(=O)O)CC(=O)N2Cc2ccc3c(c2)OCO3)cc1 (stereo not shown) [CBK263296],97.4357
3,Cc1cnn(C2(C(=O)O)CCN(C(=O)c3cccc(C#N)c3)CC2)c1 [CBK307058],75.0268
4,Fc1ccc2c(-c3ccccc3)noc2c1 [CBK025975],63.1339
5,O=C1NCC2(C/C=C/CCOc3ccccc31)CCN(C(=O)CCN1CCCC1=O)CC2 [CBK292016],120.593
6,O=C(NC1CCN(Cc2cc(F)cc(F)c2)CC1)c1cn2ccsc2n1 [CBK306970],89.4589
7,CC(C(=O)Nc1cccc2[nH]ccc12)c1ccc(Cl)cc1 (stereo not shown) [CBK159647],74.5492
8,N#CCCN(C(=O)Nc1ccc(Cl)cc1)C1CCCCC1 [CBK156365],90.1714
9,COc1ccc(S(=O)(=O)N2CCN(C(=O)COc3ccc4ccccc4c3)CC2)cc1 [CBK263371],91.892
10,CCn1cncc1CN1CC2CCCC(O)(c3ccc(C)cc3)C2C1 (stereo not shown) [CBK284374],95.2731
11,O=C(c1cccc2ncccc12)N1CC[C@@H](c2ccccc2)[C@H](O)C1 [CBK283716],66.5906
12,COc1ccc(NC(=O)C2CCCN2c2nc(O)cc(C(F)(F)F)n2)c(OC)c1 (stereo not shown) [CBK003951],98.7265
13,O=C(CCN1CCCCC1)Nc1ccc2c(=O)n3c(nc2c1)/C(=C/c1ccccc1)CC3 [CBK017786],1.845
14,CC(NC(=O)C1CCN(Cc2ncc[nH]2)CC1)c1ccc(F)cc1 (stereo not shown) [CBK148037],116.194
15,Cc1ccc(-n2c3nc(=O)[nH]c(=O)c-3cc3c(Cl)cccc32)c(C)c1 [CBK287965],74.011
16,CCCCN(C)c1nccnc1-c1ccc(CO)cc1 [CBK037666],96.1881
17,COc1ccc([C@@]23CC[C@@H](NC(=O)Nc4cccc(S(=O)(=O)C(F)(F)F)c4)C[C@@H]2N(C)CC3)cc1OC [CBK051275T],30.751
18,COc1ccc(CSc2nc3sc4c(c3c(=O)n2Cc2ccccc2)CCN(Cc2ccccc2)C4)cc1 [CBK263714],95.3426
19,CCSc1ccnc2c1c(=O)n(C)c(=O)n2C [CBK287749],93.3795
20,CCOC(=O)C(N)CSC1CC(=O)N(c2ccc(Br)cc2)C1=O (stereo not shown) [CBK017250C],7.126
21,O=c1ccc(-c2cccs2)nn1C[C@H]1CCCN1 [CBK284313],81.2259
22,CC(=O)NC1(c2ccc(F)cc2)CCN(C(=O)C2CCCCC2)CC1 [CBK283546],94.7394
23,CN1CCN(C(=O)c2ccc(-c3ccc(N4CCOCC4)cc3)nc2N(C)C)CC1 [CBK106114],114.412
24,COC(=O)c1ccsc1NS(=O)(=O)c1ccccc1 [CBK026667],91.2251
25,CNC(=O)CSc1nccnc1N1CCCC1 [CBK107748],84.612
26,O=C(O)CCCCN1C(=O)c2ccccc2S1(=O)=O [CBK287189],97.6112
